Experimental data as given in article PMC4336329 (PLoS ONE, 2015).
In all, about 310,000 compounds went through this assay and about 14,000 (4.5%) showed an effect of 50% or more. The effect is printed as a negative number. The list shows a part of the results.

These compounds were tested against human ether-à-go-go-related gene (hERG) potassium channel (human, UniProt Q12809) (assay: primary screen, population patch clamp on CHO cells stably expressing hERG).
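Also: peak tail current of the secondary pulse compared with the same well before compound.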

Sequence of human ether-à-go-go-related gene (hERG) potassium channel (Q12809 whole entry, looked up): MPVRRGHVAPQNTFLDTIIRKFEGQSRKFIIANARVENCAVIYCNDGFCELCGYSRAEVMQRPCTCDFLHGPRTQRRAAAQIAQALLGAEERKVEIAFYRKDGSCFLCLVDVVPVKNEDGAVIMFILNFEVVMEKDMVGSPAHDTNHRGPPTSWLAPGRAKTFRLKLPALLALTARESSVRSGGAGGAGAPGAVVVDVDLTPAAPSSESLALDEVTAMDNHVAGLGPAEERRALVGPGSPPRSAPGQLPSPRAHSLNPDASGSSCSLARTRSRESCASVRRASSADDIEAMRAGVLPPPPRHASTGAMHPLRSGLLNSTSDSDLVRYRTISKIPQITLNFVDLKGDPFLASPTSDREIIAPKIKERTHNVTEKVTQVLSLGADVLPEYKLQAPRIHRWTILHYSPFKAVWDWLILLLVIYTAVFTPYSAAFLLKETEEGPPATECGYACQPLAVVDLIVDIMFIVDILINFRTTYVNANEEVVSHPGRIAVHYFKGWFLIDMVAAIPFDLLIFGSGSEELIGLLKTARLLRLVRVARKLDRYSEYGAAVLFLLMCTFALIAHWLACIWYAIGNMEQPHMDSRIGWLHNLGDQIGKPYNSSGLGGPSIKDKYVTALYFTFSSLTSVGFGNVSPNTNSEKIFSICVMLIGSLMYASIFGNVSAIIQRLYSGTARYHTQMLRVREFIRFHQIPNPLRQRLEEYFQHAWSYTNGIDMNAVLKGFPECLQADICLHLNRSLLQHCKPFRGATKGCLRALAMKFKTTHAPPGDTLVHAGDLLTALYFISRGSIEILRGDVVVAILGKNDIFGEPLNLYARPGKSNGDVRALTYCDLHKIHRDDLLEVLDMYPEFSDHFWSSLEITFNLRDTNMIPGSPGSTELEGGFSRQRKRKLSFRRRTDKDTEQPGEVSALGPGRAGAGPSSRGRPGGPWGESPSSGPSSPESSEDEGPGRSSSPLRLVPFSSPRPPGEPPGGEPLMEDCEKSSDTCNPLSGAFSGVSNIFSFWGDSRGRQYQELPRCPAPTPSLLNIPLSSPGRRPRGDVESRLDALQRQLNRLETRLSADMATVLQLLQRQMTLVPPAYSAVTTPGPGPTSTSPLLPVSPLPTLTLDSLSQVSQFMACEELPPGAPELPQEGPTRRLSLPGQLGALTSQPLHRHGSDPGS

Q: With CCOC(=O)c1ccc(COC(=O)c2ccc(-c3nnc(-c4ccccc4)o3)cc2)o1 as the compound, how does the “hERG current change (%, negative = inhibition) at 10uM” value read?
A: 1.77%

Q: For CN(C)C1(CNC(=O)C2CCC(=O)N(Cc3ccc(Cl)cc3)C2)CCCCC1 (stereo not drawn), which “hERG current change (%, negative = inhibition) at 10uM” value is on record?
A: 0.208%

Q: For Cc1ccc(C2=[N+]([O-])C3(CCCCC/C3=N\O)N(O)C2(C)C)o1 (stereo not drawn), which “hERG current change (%, negative = inhibition) at 10uM” value is on record?
A: -3.99%

Q: CCCC[C@H]1COCCS(=O)(=O)N1Cc1cccc([N+](=O)[O-])c1 was tested. Which “hERG current change (%, negative = inhibition) at 10uM” value did it give?
A: -25.6%

Q: For O=C(c1ccc(OC2CCN(C/C=C/c3ccc(F)cc3)CC2)cc1)N1CCCCC1, which “hERG current change (%, negative = inhibition) at 10uM” value is on record?
A: -64.9%

Q: CCS(=O)(=O)N1Cc2ccccc2CC1C(=O)Nc1nc2c(C)cccc2s1 (stereo not drawn) was tested. Which “hERG current change (%, negative = inhibition) at 10uM” value did it give?
A: 6.09%

Q: CCN1CCN(Cc2ccc(NC(=O)c3ccc(C)c(NC(=O)c4csc(-c5ccncc5)n4)c3)cc2C(F)(F)F)CC1 was tested. Which “hERG current change (%, negative = inhibition) at 10uM” value did it give?
A: 7.22%

Q: How did the “hERG current change (%, negative = inhibition) at 10uM” value turn out when CC(C)CNC(=S)N(CCO)Cc1cc2cc3c(cc2[nH]c1=O)OCO3 was run?
A: -4.1%

Q: Which “hERG current change (%, negative = inhibition) at 10uM” value does the source give for CC1(C)CC(NC(=O)COc2ccc(Cl)cc2Cl)CC(C)(C)N1 here?
A: -13.9%

Q: Cc1[nH]c(=O)c(C#N)c(C)c1CCC(=O)Nc1cc(S(C)(=O)=O)ccc1Cl was tested. Which “hERG current change (%, negative = inhibition) at 10uM” value did it give?
A: 16.1%

Q: Which “hERG current change (%, negative = inhibition) at 10uM” value does the source give for O=C(Cn1c2c(sc1=O)C1c3ccccc3OCC1CS2)Nc1ccc(Cl)cc1 (stereo not drawn) here?
A: 16.3%

Q: O=C(Nc1cccc(Cl)c1)ON=C1c2ccccc2-c2ccccc21 was tested. Which “hERG current change (%, negative = inhibition) at 10uM” value did it give?
A: -23.6%

Q: COc1ccccc1-c1noc2ncnc(Nc3ccccc3C)c12 was tested. Which “hERG current change (%, negative = inhibition) at 10uM” value did it give?
A: -43.2%

Q: How did the “hERG current change (%, negative = inhibition) at 10uM” value turn out when O=C(Nc1nc(-c2ccc(F)c(F)c2)cs1)c1cc([N+](=O)[O-])ccc1N1CCOCC1 was run?
A: 7.34%

Q: With CCn1c(Cc2cccs2)nnc1SCC(=O)NC1CC1 as the compound, how does the “hERG current change (%, negative = inhibition) at 10uM” value read?
A: -1.49%

Q: For CC1CCN(c2ccc(C(=O)Nc3ccc4c(c3)OCO4)cc2[N+](=O)[O-])CC1, which “hERG current change (%, negative = inhibition) at 10uM” value is on record?
A: 7.17%

Q: With COc1ccccc1-n1cc([C@@H]2C[C@H]3CN(c4ccccc4)C(=O)[C@]34CCCN24)cn1 as the compound, how does the “hERG current change (%, negative = inhibition) at 10uM” value read?
A: -17.1%

Q: Which “hERG current change (%, negative = inhibition) at 10uM” value does the source give for CC(=O)NCCc1nc2cc(NC(=O)c3cccc([N+](=O)[O-])c3)ccc2n1C here?
A: 19.2%

Q: Which “hERG current change (%, negative = inhibition) at 10uM” value does the source give for O=C(CCCCCN1C(=O)c2ccccc2C1=O)NCc1ccco1 here?
A: -8.6%

Q: With Cc1nnc(NC(=O)CCNC(=O)c2ccccc2Cl)s1 as the compound, how does the “hERG current change (%, negative = inhibition) at 10uM” value read?
A: 28%

Q: For CC(=O)Nc1ccc(S(=O)(=O)N2CCN(CCCOc3cc(C)ccc3C)CC2)cc1, which “hERG current change (%, negative = inhibition) at 10uM” value is on record?
A: -40.2%

Q: With COc1cccc(CNC(=O)CCN2C(=O)[C@@H]3Cc4ccccc4CN3C2=O)c1 as the compound, how does the “hERG current change (%, negative = inhibition) at 10uM” value read?
A: 7.5%

Q: O=c1cc(NS(=O)(=O)c2ccccc2)nc(SCc2c(Cl)cccc2Cl)[nH]1 was tested. Which “hERG current change (%, negative = inhibition) at 10uM” value did it give?
A: 22.4%

Q: With Cc1ccc(/C=C/c2nnc(-c3ccccc3)o2)cc1 as the compound, how does the “hERG current change (%, negative = inhibition) at 10uM” value read?
A: 2.67%

Q: With O=C(COc1ccc(Cl)cc1Cl)N1CCNC1=O as the compound, how does the “hERG current change (%, negative = inhibition) at 10uM” value read?
A: -16.7%

Q: For O=C(NCCSc1ccccc1)c1ccccc1F, which “hERG current change (%, negative = inhibition) at 10uM” value is on record?
A: 5.32%

Q: CCN(CC)S(=O)(=O)c1cccc(-c2nnc(SCc3ncc(-c4ccccc4)o3)n2C)c1 was tested. Which “hERG current change (%, negative = inhibition) at 10uM” value did it give?
A: -68.2%

Q: Which “hERG current change (%, negative = inhibition) at 10uM” value does the source give for COc1ccc2c(c1)C1(C)CC(C)(C)N2C(=O)N1c1ccccc1 (stereo not drawn) here?
A: 4.35%

Q: With Cc1ccc(S(=O)(=O)N(C)c2ccc(C(=O)Nc3cccnc3)cc2)cc1 as the compound, how does the “hERG current change (%, negative = inhibition) at 10uM” value read?
A: 8.9%

Q: For C/C(CC(=O)Nc1ccc(Cl)c(Cl)c1)=N\NC(N)=S, which “hERG current change (%, negative = inhibition) at 10uM” value is on record?
A: 19.3%

Q: CCC12C(=O)C(CC)(C(c3ccccc3)=C1c1ccccc1)[C@@H]1C(=O)N(c3ccccc3)C(=O)C12 (stereo partly drawn) was tested. Which “hERG current change (%, negative = inhibition) at 10uM” value did it give?
A: 5.32%

Q: NC(=O)CSc1nnc(C2CC2)n1-c1ccccc1 was tested. Which “hERG current change (%, negative = inhibition) at 10uM” value did it give?
A: 20.9%

Q: With COC(=O)CCc1c(C)nn(-c2ccccc2)c1C as the compound, how does the “hERG current change (%, negative = inhibition) at 10uM” value read?
A: -1.68%

Q: With CCc1c(C)nc(N2CCN(c3ccccc3)CC2)[nH]c1=O as the compound, how does the “hERG current change (%, negative = inhibition) at 10uM” value read?
A: 12.6%

Q: O=C(NN1C(=O)/C(=C/c2cc([N+](=O)[O-])ccc2O)SC1=S)c1ccccc1O was tested. Which “hERG current change (%, negative = inhibition) at 10uM” value did it give?
A: 10.2%

Q: How did the “hERG current change (%, negative = inhibition) at 10uM” value turn out when O=C(Nc1ccc(N2CCN(C(=O)c3ccccc3)CC2)c(Cl)c1)c1cccnc1 was run?
A: -31.2%

Q: For Cc1cc(Cl)c(S(=O)(=O)Nc2cc(S(=O)(=O)N3CCOCC3)ccc2F)cc1OCC(N)=O, which “hERG current change (%, negative = inhibition) at 10uM” value is on record?
A: 1.02%

Q: With Cc1csc(SCC(=O)NCCc2ccc(Cl)cc2)n1 as the compound, how does the “hERG current change (%, negative = inhibition) at 10uM” value read?
A: -11.4%

Q: How did the “hERG current change (%, negative = inhibition) at 10uM” value turn out when CC(C)Cn1c(-c2cc([N+](=O)[O-])ccc2Cl)nc2c1c(=O)[nH]c(=O)n2Cc1ccccc1 was run?
A: -2.61%

Q: Which “hERG current change (%, negative = inhibition) at 10uM” value does the source give for O=C(/C=C/c1c(F)cccc1Cl)NCc1ccco1 here?
A: 2.45%

Q: Which “hERG current change (%, negative = inhibition) at 10uM” value does the source give for COc1ccc(CNCC(O)(c2ccccc2)c2ccc(Cl)cc2)cc1 (stereo not drawn) here?
A: -68.8%

Q: For C1CCCCCC(=NNc2nn[nH]n2)CCCCC1, which “hERG current change (%, negative = inhibition) at 10uM” value is on record?
A: 8.75%

Q: With Cc1cc(C)nc(Nc2cccc3ccccc23)n1 as the compound, how does the “hERG current change (%, negative = inhibition) at 10uM” value read?
A: 12.3%

Q: How did the “hERG current change (%, negative = inhibition) at 10uM” value turn out when COc1ccccc1NS(=O)(=O)c1ccc(NN=C2CCCCC2)c([N+](=O)[O-])c1 was run?
A: 9.59%

Q: With O=C(Nc1c(F)c(F)c(F)c(F)c1F)NC1CCCCC1 as the compound, how does the “hERG current change (%, negative = inhibition) at 10uM” value read?
A: -11.1%

Q: Which “hERG current change (%, negative = inhibition) at 10uM” value does the source give for CCOC(=O)c1sc2cccc(F)c2c1N here?
A: -11%

Q: With CCO[C@H]1OC(C(N)=O)=C[C@@H](C)[C@@H]1CCCO as the compound, how does the “hERG current change (%, negative = inhibition) at 10uM” value read?
A: 12.9%

Q: Which “hERG current change (%, negative = inhibition) at 10uM” value does the source give for CNC(=S)N(C)CCc1cc2c(c(OC)c1/C=C1/C(=O)NC(=O)N(C)C1=O)OCO2 here?
A: 14.4%

Q: With O=C(NCc1ccc(F)cc1)c1cc2n(n1)C(C(F)(F)F)CC(C1CC1)N2 (stereo not drawn) as the compound, how does the “hERG current change (%, negative = inhibition) at 10uM” value read?
A: 1.61%

Q: CC(C)NS(=O)(=O)c1ccc(CCC(=O)NCc2ccc3c(c2)OCO3)cc1 was tested. Which “hERG current change (%, negative = inhibition) at 10uM” value did it give?
A: -1.6%

Q: With Cn1c(COc2ccccc2)nnc1SCC(=O)c1cccc([N+](=O)[O-])c1 as the compound, how does the “hERG current change (%, negative = inhibition) at 10uM” value read?
A: 1.08%

Q: With Cc1cccc(OCCCCCN2CCOCC2)c1C as the compound, how does the “hERG current change (%, negative = inhibition) at 10uM” value read?
A: 7.01%

Q: Which “hERG current change (%, negative = inhibition) at 10uM” value does the source give for Cc1cc2ccccn2c1C(=O)c1ccc(S(=O)(=O)N(C)C)cc1 here?
A: 1.85%

Q: How did the “hERG current change (%, negative = inhibition) at 10uM” value turn out when CCC(NC(=O)CSc1nnnn1C1CC1)c1ccc(Br)cc1 (stereo not drawn) was run?
A: -17%
